Values joined by “and” are separate entries in the source; they are usually repeats but may differ in a detail not shown here. Identical values can stand only once. In all, about 110,000 compounds went through this assay and about 230 (0.21%) showed an effect of 50% or more. This is one part of the list.
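Also: 30 min substrate incubation versus DMSO and 10 µM JCP410 controls.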

In the assay the target is DPAP1 (Plasmodium falciparum, UniProt Q8IIJ9). The assay can be described thus: primary screen, percent inhibition; read by cleavage of a fluorogenic dipeptide substrate; higher = more effect of the substance. Set-up: species or system P. falciparum D10 trophozoite lysates; single well.
Chain of DPAP1 (Q8IIJ9 whole entry, looked up): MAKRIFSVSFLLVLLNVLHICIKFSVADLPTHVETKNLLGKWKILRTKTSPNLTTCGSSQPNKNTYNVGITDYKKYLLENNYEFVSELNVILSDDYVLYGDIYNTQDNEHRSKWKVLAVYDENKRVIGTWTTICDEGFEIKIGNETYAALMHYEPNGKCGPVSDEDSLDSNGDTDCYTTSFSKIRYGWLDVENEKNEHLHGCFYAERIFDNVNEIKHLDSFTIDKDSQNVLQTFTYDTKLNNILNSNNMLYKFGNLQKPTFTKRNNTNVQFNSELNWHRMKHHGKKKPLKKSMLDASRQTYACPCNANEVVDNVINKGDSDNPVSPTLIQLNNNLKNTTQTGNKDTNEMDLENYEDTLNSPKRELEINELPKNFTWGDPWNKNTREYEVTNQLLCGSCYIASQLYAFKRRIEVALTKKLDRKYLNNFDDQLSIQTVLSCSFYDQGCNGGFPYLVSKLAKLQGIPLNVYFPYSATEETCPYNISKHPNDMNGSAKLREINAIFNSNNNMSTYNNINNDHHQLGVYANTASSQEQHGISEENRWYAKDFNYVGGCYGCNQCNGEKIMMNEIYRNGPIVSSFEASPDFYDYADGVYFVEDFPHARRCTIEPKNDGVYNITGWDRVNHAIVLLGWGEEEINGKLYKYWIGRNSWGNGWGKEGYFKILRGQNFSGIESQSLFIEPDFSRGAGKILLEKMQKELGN
As for `Cc1ccc(-c2nnc3sc(-c4cc5ccccc5o4)nn23)cc1`, the “% Inhibition @ 10 uM” value is -2.21%. For `COc1ccc(Cn2c(C(=O)O)c(CNCc3ccc(C)cc3)c3ccc(C)cc32)cc1` the value was 3.47%; for `CCCC(=O)NCCCc1nc2ccccc2n1Cc1ccccc1Cl`, -0.551%. For `CCN1CCN(Cc2cccc(Br)c2)CC1` the value was -1.93%; for `O=C(NCC1CCCO1)c1cccc(Br)c1` (stereo not shown), 1.26%; for `CCC(=O)c1c(O)ccc2c(C)cc(=O)oc12`, -1.46%. For `COC(=O)C1=NNC(c2ccccc2)(c2ccccc2)C1` the value was 2.58%; for `COC(=O)C1=CN(C)C=C(C(=O)OC)C1c1cc(OC)ccc1OC`, 0.219%.

For the molecule `COc1ccc(CNC(=O)c2ccc(Br)cc2)cc1`, the “% Inhibition @ 10 uM” value is given as 0.215%. For `Cn1c2ccccc2c2nn3c(S)nnc3nc21` the value was 0.884%; for `OC1CCCN(CCc2ccccc2)C1` (stereo not shown), 1.38%; for `COc1ccc(OC)c(/C=C2\N=C(c3cccc(C)c3)OC2=O)c1`, 8.79%. For the molecule `COC(=O)c1nc2n(n1)C(c1ccc(OC)c(OC)c1OC)C1=C(O)CCCC1=N2` (stereo not shown), the “% Inhibition @ 10 uM” value is -3.37%. For `Cc1nc(S)nc(O)c1CCO` the value was 0.351%; for `COc1ccc2c(c1)OCC/C2=N\OC(=O)c1ccccc1-c1ccccc1`, -1.92%. For `Cc1ccc(C)n1-c1ccc(C(=O)O)c(Cl)c1` the value was -2.26%; for `CCCc1ccc(-c2ccc(OC(F)F)cc2)nc1`, 1.4%. For `COCc1cc(C)nc2sc(C(=O)N(c3ccccc3)c3ccccc3)c(N)c12` the value was 9.65%; for `CCCCC1(C(c2ccccc2)c2ccccc2)C(=O)c2ccccc2C1=O`, -3.79%; for `COc1ccc(CNC2CCCC2)cc1C`, -1.56%.

Regarding `O=C1/C(=C\c2ccc(O)cc2)Sc2ccccc21`, the “% Inhibition @ 10 uM” value is on record as -2.18%. Take `O=[N+]([O-])c1ccc2c(c1)Cc1cc(C3CC3)ccc1-2`: the “% Inhibition @ 10 uM” value was -2.51%. Turning to `N#C/C(=C\c1cc2c(cc1Br)OCO2)C(N)=O`, the “% Inhibition @ 10 uM” value is given as -1.48%.

Regarding `Cc1cccn2c(=O)c3cc(C(=O)NC(C)c4ccccc4)c(=N)n(Cc4ccco4)c3nc12` (stereo not shown), the “% Inhibition @ 10 uM” value is reported as -1.47%.

Turning to `OCCN(Cc1ccccc1)Cc1c(Cl)cccc1Cl`, the “% Inhibition @ 10 uM” value is on record as -4.14%. With `COc1ccc2c(oc(=O)c3ccccc32)c1C`, the “% Inhibition @ 10 uM” value is recorded as -0.357%.

Take `O=C(COc1ccccc1Cl)Nc1ccc2nn(-c3ccccc3)nc2c1`: the “% Inhibition @ 10 uM” value is recorded as -1.88%. For `CN(CC(=O)N1CCN(Cc2ccccc2)CC1)S(=O)(=O)c1cccc2nsnc12` the value was -1.43%; for `CCOC(=O)N1CCN(c2c(-c3ccc(C)cc3)c(=O)c2=O)CC1`, -2.57%. For `CC(C)(CNC(=O)c1ccccc1F)CNC(=O)c1ccccc1F` the value was 19.1%.

Regarding `CN1C(=O)NC(c2ccccc2)c2cc(Cl)ccc21` (stereo not shown), the “% Inhibition @ 10 uM” value was -1.96%.

On to `CC(C)C[C@H](NC(=O)c1ccccc1-c1ccccc1)C(=O)NCC#N`, for which the “% Inhibition @ 10 uM” value is given as 16.9%.

On to `O=C(O)c1ccc(CN2CCCCC2)o1`, for which the “% Inhibition @ 10 uM” value was -4.03% and -6.22%.

Turning to `c1ccc(-c2cc(-c3ccccc3)n(-c3ccccc3)n2)cc1`, the “% Inhibition @ 10 uM” value is -6.99%. For `O=C(NCC1CCCO1)c1ccc(CS(=O)(=O)c2ccc(Br)cc2)o1` (stereo not shown) the value was 2.14%; for `O=c1c2ccccc2nc(/C=C\c2ccc(O)cc2)n1-c1ccc(O)cc1`, 3.81%. For `CCCN1CCN(C(=O)Cn2ncc3c4ccccc4n(Cc4ccccc4F)c3c2=O)CC1` the value was 3.4%; for `Cc1ccc(Cn2c(=O)c3cccnc3n(Cc3cccc(C(F)(F)F)c3)c2=O)cc1`, -3.44%; for `CCOc1ccccc1C(=O)Nc1ccc(C(N)=O)cc1`, -1.32%.

Take `COc1ccc(OC)c(N(CC(=O)NC(C)(C)C)S(C)(=O)=O)c1`: the “% Inhibition @ 10 uM” value was found to be 2.02%. For `Cc1ccc2c(Cl)c(C(=O)Nc3ccc(S(=O)(=O)Nc4ncccn4)cc3)sc2c1` the value was 2.38%; for `CCC(=O)c1ccc(N2CCN(C(=O)c3ccccc3)CC2)c(F)c1`, -0.173%; for `N#Cc1ccc(OCc2cccc3c2N=S=N3)cc1`, 0.145%. Take `O=C(N1CCCC1)C12CC3CCC(CC(C3)C1)C2`: the “% Inhibition @ 10 uM” value is listed as 5.66%. For `Oc1c(C(c2ccccn2)N2CCN(c3ccccc3F)CC2)ccc2cccnc12` (stereo not shown) the value was 0.709%; for `COc1cc(/C=C2\C(=N)N3N=C(S(=O)(=O)CC(C)C)SC3=NC2=O)ccc1O`, 0.208%. With `COc1ccc(CNC(=O)C2CCC(CNS(=O)(=O)c3cccc4nsnc34)CC2)cc1` (stereo not shown), the “% Inhibition @ 10 uM” value amounted to 2.93%. For `COc1cc(C(=O)NCCC(=O)NCc2cccs2)cc(OC)c1OC`, the “% Inhibition @ 10 uM” value is -1.99%. For `O=C(CN1CCCCCC1)c1ccccc1`, the “% Inhibition @ 10 uM” value is reported as -1.96%. For `CC(C)CSC(SCC(C)C)=C(C#N)C(=O)N1CCCC1` the value was 4.33%; for `CC(C)NS(=O)(=O)c1cccnc1N1CCN(CCO)CC1`, -7.62%; for `COc1cc(C(=O)O/N=C2/CCSc3ccccc32)cc(OC)c1OC`, -1.4%. For `CCC1CCC(N(C)CCN(CC)CC)CC1` (stereo not shown) the value was -7.93%.

As for `CC(C)CN1CC(C)C(O)(c2ccccc2)CC1C` (stereo not shown), the “% Inhibition @ 10 uM” value is on record as -3.72%.

On to `CCN(CC)C(=O)C1CCCN(c2ncnc3c2c(-c2ccccc2)cn3-c2ccc(F)cc2)C1` (stereo not shown), for which the “% Inhibition @ 10 uM” value is reported as -0.0781%. For `CCOc1ccc(N2CC(C(=O)Nc3cccc(OCC)c3)CC2=O)cc1` (stereo not shown) the value was 0.727%; for `CC(=O)Nc1ccc(NC(=O)C(C)Oc2cc(Cl)c(Cl)cc2Cl)cc1` (stereo not shown), 0.231%. Turning to `Cc1nnc(NC(=O)CSc2nnc(CNC(=O)c3ccccc3)n2-c2ccc(F)cc2)s1`, the “% Inhibition @ 10 uM” value amounted to 0.44%. For `O=C(COc1ccc(S(=O)(=O)NCc2ccccc2)cc1)N1CCN(c2ccccc2)CC1` the value was -0.318%. For `CC1=C(C(=O)N2CCN(c3ccc(F)cc3)CC2)C(c2ccc(Cl)c(Cl)c2)C(C#N)=C(N)O1` (stereo not shown) the value was 9.61%; for `CC(=O)c1cccc(NC(=O)C2C3/C=C\CCCCC32)c1` (stereo not shown), -9.68%; for `Nc1nonc1-c1nc2ccccc2n1CC(=O)Nc1ccc(F)c(F)c1`, 2.44%.

For `Clc1ccccc1C1NCCc2[nH]cnc21` (stereo not shown), the “% Inhibition @ 10 uM” value is given as -2.63%. For `Cc1ccccc1OCc1nc(C#N)c(NCc2ccco2)o1` the value was -0.463%. For `O=C(C1CCCN(S(=O)(=O)c2ccccc2)C1)N1CCCC(C(F)(F)F)C1` (stereo not shown) the value was 0.032%; for `Cc1cc(Br)ccc1OCC(=O)Nc1ccc(S(=O)(=O)N2CCCC2)cc1`, -3.45%; for `COc1ccc(NC(=O)C2CC(=O)N=C(Nc3nc(C)c4ccccc4n3)N2)cc1` (stereo not shown), -4.15%.

Turning to `N#Cc1c(N2CCCCC2)ncc2c(O)c3ccccc3nc12`, the “% Inhibition @ 10 uM” value worked out at 0.431%. For `C=CCOC(=O)C1=C(C)NC(=O)NC1c1ccc(F)cc1` (stereo not shown) the value was 1.13%. For `C=CCn1c(COc2ccccc2)nc2ccccc21` the value was -2.24%; for `Cc1ccc(CNC(=O)C2CCCN(C(=O)c3cc4sccc4n3C)C2)cc1` (stereo not shown), -3.67%; for `COc1ccc(C(O)(CCN2CCCCC2)C2CCCCC2)cc1` (stereo not shown), 1.84%. For `Cc1ccc(C2SC(C)C(=O)N2c2ccc(C)cc2)cc1` (stereo not shown), the “% Inhibition @ 10 uM” value is recorded as -3.44%. For `Cc1ccc(NC(=O)CN2C(=O)S/C(=C\c3cc(C)n(C)c3C)C2=O)cc1` the value was 10.9%; for `CC(C)C[C@H](NC(=O)c1cc(-c2ccsc2)cc(-c2ccsc2)c1)C(=O)NCC#N`, -1.41%. For `O=C(Nc1nccs1)c1ccc(NC(=O)C(c2ccccc2)c2ccccc2)cc1` the value was -3.09%. In the case of `Cc1ccc(NC(=O)c2cnccn2)cc1Cl`, the “% Inhibition @ 10 uM” value was -5.2%. For `COc1cc2c(cc1OC)C1=C(c3ccc4c(c3C1)OCO4)N(C)CC2` the value was -5.41%. For `CC(C)C[C@H](NC(=O)OCc1ccccc1)C(=O)NC(C#N)c1cc(Br)cs1` (stereo partly shown) the value was -3.04%; for `CC(C)(C)Oc1ncc(-c2cccnc2)c(OC(C)(C)C)n1`, 3.81%; for `CCCOC(=O)c1ccc(NC(=O)c2ccccc2C)cc1`, 3.47%. For `CC(C)c1ccc(OCC(O)CNC(C)(C)C)cc1` (stereo not shown), the “% Inhibition @ 10 uM” value was -3.93%. With `Cc1c(Cl)cccc1NC(=O)/C=C/c1ccc(C(C)C)cc1`, the “% Inhibition @ 10 uM” value amounted to 0.912%. For `CCOc1c(OC)cccc1C1CC(=O)NC2=C1C(=O)CC(C)(C)C2` (stereo not shown) the value was 2.35%. For `Cc1c(Cc2ccccc2)sc(NC(=O)CCc2ccccc2)c1C(N)=O` the value was -1.65%; for `CCCNC(=O)Cn1cc(S(=O)(=O)N2CCCC2)c(S(=O)(=O)N2CCCC2)c1`, -1.88%; for `Cn1c2c(c(=O)n(C)c1=O)C(c1ccc(Br)cc1)C1=C(O)CCCC1=N2` (stereo not shown), 0.726%. For `COc1ccccc1-n1cc2c(c1-c1ccccc1Cl)c(=O)n(C)c(=O)n2C` the value was 2.02%; for `CCOc1ccc(N(CC(=O)NC(C)(C)C)S(=O)(=O)c2ccc(C)cc2)cc1`, 2.51%.

With `CC(C)(C)Nc1nc(N2CCOCC2)nc(N2CCOCC2)n1`, the “% Inhibition @ 10 uM” value was -4.35%. For `C=CCN1C(=O)N/C(=C/c2cc(OC)c(O)c(OC)c2)C1=O` the value was 7.42%; for `CC(=O)Nc1ccc(C(=O)N2CCCCCC2)cc1`, -14.4%.

Consider `O=C(O)c1ccc(-c2ccncc2)s1`, for which the “% Inhibition @ 10 uM” value was 5.91%. For `Cc1cc(C)nc(N2CCN(C(=O)c3cccc(Br)c3)CC2)n1` the value was -4.75%. For `O=C(NC(Cc1ccccc1)Cc1ccccc1)c1ccco1` the value was 2.79%; for `CC(C)CC(C(=O)NCC#N)c1cccc2ccccc12` (stereo not shown), -8.26%; for `Oc1cc(O)nc(SCc2ccccc2)n1`, 0.0345%.

`Cc1[nH]c(-c2ccc(F)cc2)cc1C(=O)NCc1ccccc1Cl`: the “% Inhibition @ 10 uM” value stood at 7.1%. For `COCCCNC(=O)c1cnc2ccc(S(=O)(=O)N3CC(C)CC(C)C3)cc2c1O` (stereo not shown) the value was -8.86%. For `O=C(O)CCCCCNS(=O)(=O)c1c(Cl)cccc1Cl` the value was -1.92%. For `CCN(CC)C(=O)C1CCCN(Cc2cccc3ccccc23)C1` (stereo not shown) the value was 1.48%.

`Cc1ccc(S(=O)(=O)N(C)c2ccccc2C(=O)NC2CCCC2)cc1`: the “% Inhibition @ 10 uM” value was -4.14%. Take `O=C(Nc1ccc(Cl)cn1)c1ccc2c3c(cccc13)CC2`: the “% Inhibition @ 10 uM” value is -3.19%.
